# According to paper PMC6602471:
# The other results are listed elsewhere or left out. At the low end of the ranking the order means little.
# Target: T1, ELK1 (UniProt P19419)
# T1 sequence: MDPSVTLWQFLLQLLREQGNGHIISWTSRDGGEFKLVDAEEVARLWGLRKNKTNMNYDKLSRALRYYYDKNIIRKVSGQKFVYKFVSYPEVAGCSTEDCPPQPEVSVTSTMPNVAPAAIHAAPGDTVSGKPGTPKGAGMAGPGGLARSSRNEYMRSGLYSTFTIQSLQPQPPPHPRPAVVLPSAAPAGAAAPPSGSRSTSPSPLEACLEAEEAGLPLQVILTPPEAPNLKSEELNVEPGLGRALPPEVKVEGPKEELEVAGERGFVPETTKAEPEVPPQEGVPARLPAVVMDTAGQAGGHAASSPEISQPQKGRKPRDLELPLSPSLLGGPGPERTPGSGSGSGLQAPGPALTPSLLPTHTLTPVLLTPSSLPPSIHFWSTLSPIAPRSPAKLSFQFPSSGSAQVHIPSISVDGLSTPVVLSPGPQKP
# Assay: custom PBM
# Settings: custom protein-binding microarray; buffer, salt, pH and temperature not stated; high values mean tight binding; double strand, one strand shown
row,Sequence,binding signal (log fluorescence intensity)
1,CGGATGTGTCGTAAACGTCGGATATCCGGTTCTTCTGTCTTGATTCGCTTGACGCTGCTG,12.2
2,CAGCATAGGACTTCTTCCCTGAAGCAATTGATAAGCGTCTTGATTCGCTTGACGCTGCTG,8.86
3,ATGGGACTTGACCCAACTCTGCCACGTGGGTCGTTTGTCTTGATTCGCTTGACGCTGCTG,8.96
4,TGTCGGGTAAGGGAATGTAGATCACGTGAATTAAAAGTCTTGATTCGCTTGACGCTGCTG,8.81
5,TAAAGGGAAGACGGTTGTGGTAGTTCCGGCTATTAAGTCTTGATTCGCTTGACGCTGCTG,11.3
6,CGGAAGTGTCGTGAACGTCGGATATCCGGTTCTTCTGTCTTGATTCGCTTGACGCTGCTG,11.8
7,TGTCGGGTAAGGGAACGTAGATCACGTGAATGAAAAGTCTTGATTCGCTTGACGCTGCTG,8.84
8,CAGCGTAGGACTTCTTCCCTGAAGCAATTGATAACCGTCTTGATTCGCTTGACGCTGCTG,8.89
9,GGAAAAAGGCCCAGGGTAACACCGAAAGTGGGCTTAGTCTTGATTCGCTTGACGCTGCTG,8.94
10,CGGAAGTGTCGTAAACGTCGAATATCCGGTTCTTCTGTCTTGATTCGCTTGACGCTGCTG,11.7
11,CTGGGACTTGACCCAACTCTGGCACGTGGGTCGTTTGTCTTGATTCGCTTGACGCTGCTG,8.84
12,TACTGACTTATATATGCGAATGCACAAGAATAGACCGTCTTGATTCGCTTGACGCTGCTG,8.84
13,TAAAGGCAAGACGGTTGTGGTAGTTCCGGGTATTAAGTCTTGATTCGCTTGACGCTGCTG,11
14,GTGTATAGGATCCCATCCACCACACGTGTTAAAATGGTCTTGATTCGCTTGACGCTGCTG,8.9
15,CTGGGACTTGACTCAACTCTGCCACGTGGGTCGTTTGTCTTGATTCGCTTGACGCTGCTG,8.85
16,CGGAAGTGCCGTAAACGTCGGATATCCGGTTCTTCTGTCTTGATTCGCTTGACGCTGCTG,12.5
17,CAGCATAGGACTTCTTCCCTGAAGAAATTGATAACCGTCTTGATTCGCTTGACGCTGCTG,8.96
18,CTGGGACTTGAACCAACTCTGCCACGTGGGTCGTTTGTCTTGATTCGCTTGACGCTGCTG,8.83
19,GCTGCTGCGGTGCATACCCCACCGGATGAGACCCCGGTCTTGATTCGCTTGACGCTGCTG,9.34
20,TAAAGGGAAGACGGATGTGGTAGTTCCGGGTATTAAGTCTTGATTCGCTTGACGCTGCTG,12.6
21,CAGCATAGGACTTCTTCCCTGAAGCCATTGATAACCGTCTTGATTCGCTTGACGCTGCTG,8.99

row,Sequence,binding signal (log fluorescence intensity)
1,TACTGACTTATATATGCGAATGCAGATGAATAGACCGTCTTGATTCGCTTGACGCTGCTG,8.95
2,CAGCATAGGACTTCTTCCCTGAAGCAATTGATAGCCGTCTTGATTCGCTTGACGCTGCTG,9.06
3,CTGGGACTTGACCCGACTCTGCCACGTGGGTCGTTTGTCTTGATTCGCTTGACGCTGCTG,8.82
4,CAGCATAGGACTTCTTCCCTGAAGCAATTGATATCCGTCTTGATTCGCTTGACGCTGCTG,9.07
5,GTGTATAAGATCCCATCCAACACACGTGTTAAAATGGTCTTGATTCGCTTGACGCTGCTG,8.8
6,GGAAAAAGGCCCAGGGTACCACCGGAAGTGGGCTTAGTCTTGATTCGCTTGACGCTGCTG,11.1
7,TAAAGGGAAGACGGTTGTGGTTGTTCCGGGTATTAAGTCTTGATTCGCTTGACGCTGCTG,10.5
8,TACTGACTTATGTATGCGAATGCACATGAATAGACCGTCTTGATTCGCTTGACGCTGCTG,8.84
9,CAGCCTAGGACTTCTTCCCTGAAGCAATTGATAACCGTCTTGATTCGCTTGACGCTGCTG,8.8
10,CAGCATAGGACTTCTTCCCTGAAGGAATTGATAACCGTCTTGATTCGCTTGACGCTGCTG,8.89
11,CAGCATAGGACCTCTTCCCTGAAGCAATTGATAACCGTCTTGATTCGCTTGACGCTGCTG,8.85
12,GCTGCTGCGGTGCATACCCCACCGGATGTGACCCCTGTCTTGATTCGCTTGACGCTGCTG,10.1
13,TCCGGCCACCAGCTCCACCCACTTCAGGCCTTGTAGGTCTTGATTCGCTTGACGCTGCTG,8.76
14,TCCGGCAACCAGCTCCACCCACTTCAGGCCTTGTAGGTCTTGATTCGCTTGACGCTGCTG,8.79
15,GATTAATTTCTGCCCTCATTCGCACGTGCCATAACAGTCTTGATTCGCTTGACGCTGCTG,8.87
16,TAAAGGGAAGACGGTTGTCGTAGTTCCGGGTATTAAGTCTTGATTCGCTTGACGCTGCTG,10.9
17,GTGTATAGGATCCCATCCAATACACGTGTTAAAATGGTCTTGATTCGCTTGACGCTGCTG,8.93
18,TAAAGGGAAGACGGTTGAGGTAGTTCCGGGTATTAAGTCTTGATTCGCTTGACGCTGCTG,11.3
19,CAGCATAGGACTCCTTCCCTGAAGCAATTGATAACCGTCTTGATTCGCTTGACGCTGCTG,8.92
20,ATGTATAGGATCCCATCCAACACACGTGTTAAAATGGTCTTGATTCGCTTGACGCTGCTG,8.79
